Test results published in PMC4336329 (PLoS ONE, 2015).
In all, about 310,000 compounds went through this assay and about 14,000 (4.5%) showed an effect of 50% or more. Effects have a minus sign here. Some of the results follow.

Target: human ether-à-go-go-related gene (hERG) potassium channel (human, UniProt Q12809)
Assay: primary screen, population patch clamp on CHO cells stably expressing hERG
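Also: peak tail current of the secondary pulse compared with the same well before compound.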

human ether-à-go-go-related gene (hERG) potassium channel, sequence (Q12809 whole entry, looked up): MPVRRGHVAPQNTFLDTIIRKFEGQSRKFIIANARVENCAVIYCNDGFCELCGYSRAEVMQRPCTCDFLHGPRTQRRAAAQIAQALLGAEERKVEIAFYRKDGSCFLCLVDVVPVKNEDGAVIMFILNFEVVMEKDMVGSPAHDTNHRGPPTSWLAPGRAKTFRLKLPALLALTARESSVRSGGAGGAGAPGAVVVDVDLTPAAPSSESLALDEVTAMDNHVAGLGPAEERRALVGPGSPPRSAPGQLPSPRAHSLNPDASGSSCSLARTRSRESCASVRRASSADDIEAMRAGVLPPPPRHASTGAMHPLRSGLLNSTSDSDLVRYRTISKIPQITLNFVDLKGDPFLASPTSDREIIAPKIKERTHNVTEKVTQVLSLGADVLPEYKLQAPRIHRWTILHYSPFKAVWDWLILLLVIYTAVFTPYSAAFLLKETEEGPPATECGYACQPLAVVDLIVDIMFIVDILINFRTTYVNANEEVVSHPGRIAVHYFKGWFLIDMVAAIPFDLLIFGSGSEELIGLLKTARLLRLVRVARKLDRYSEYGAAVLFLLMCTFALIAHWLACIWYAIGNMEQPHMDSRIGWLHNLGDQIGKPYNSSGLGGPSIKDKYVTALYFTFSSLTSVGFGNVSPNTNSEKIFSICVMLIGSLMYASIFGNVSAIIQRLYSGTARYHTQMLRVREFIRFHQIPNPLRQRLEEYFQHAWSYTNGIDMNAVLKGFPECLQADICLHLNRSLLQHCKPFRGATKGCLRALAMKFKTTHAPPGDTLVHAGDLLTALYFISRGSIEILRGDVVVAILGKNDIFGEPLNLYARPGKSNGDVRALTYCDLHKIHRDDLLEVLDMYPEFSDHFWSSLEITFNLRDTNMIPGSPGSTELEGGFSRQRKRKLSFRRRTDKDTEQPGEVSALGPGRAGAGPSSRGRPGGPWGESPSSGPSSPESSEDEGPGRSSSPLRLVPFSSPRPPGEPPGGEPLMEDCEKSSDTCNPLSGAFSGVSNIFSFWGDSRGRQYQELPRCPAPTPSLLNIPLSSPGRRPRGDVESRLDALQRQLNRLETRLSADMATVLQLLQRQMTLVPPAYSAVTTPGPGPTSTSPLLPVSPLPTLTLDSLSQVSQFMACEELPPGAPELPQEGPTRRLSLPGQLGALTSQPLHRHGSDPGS

SMILES | hERG current change (%, negative = inhibition) at 10uM [%]
COc1ccc(NCc2nnc(SCC(=O)Nc3ccccc3OC)o2)cc1 | -5.75
O=C(NC12CC3CC(CC(C3)C1)C2)N1CCCC(CO)C1 (centres unmarked) | 4.04
O=C(NCc1cccs1)C1CC(=O)N(c2ccccc2)C1 (centres unmarked) | -9.33
O=C1C=C(c2ccccc2Oc2ccccc2)C[C@@H](c2ccc3c(c2)OCO3)C1 | 6.04
CCOc1ccccc1C(=O)NCC(=O)N(C)Cc1ccccc1C | 1.22
O=C(Nc1ccccc1C(=O)N1CCCC1)c1cccc(S(=O)(=O)N2CCCCC2)c1 | -12.1
COC(=O)CNS(=O)(=O)c1ccc(C)cc1 | 8.15
CCCc1n[nH]c(=S)n1Cc1ccco1 | 7.81
O=C(N/N=C/c1cc(Cl)cc([N+](=O)[O-])c1O)c1cc(-c2ccccn2)nc2ccccc12 | 15.8
O=C(CN1CCc2ccccc2C1)Nc1ccc(F)cc1F | -24
CSc1ccccc1NC(=O)CN(C)C(=O)Cc1c(F)cccc1Cl | 6.45
S=C(NCc1ccc2c(c1)OCO2)NC1CCN(Cc2ccccc2)CC1 | 20.6
CC1CCCC(C)N1NC(=S)Nc1ccc(OC(F)F)cc1 (centres unmarked) | -68.3
Cc1cc2cc(CNC(=O)NC3CCCCC3)ccc2[nH]1 | -7.94
Clc1cccc(OCc2nc(-c3ccncc3)no2)c1 | -5.46
Cc1nn(CC(=O)NC(=O)c2ccccc2)c(C)c1[N+](=O)[O-] | -18.5
COc1cccc(-n2nnnc2SCC(=O)NC2CCCCC2)c1 | 3.1
COc1ccc(CC(=O)OCc2cc(=O)n3cc(Br)ccc3n2)cc1OC | -27.5
O=C(C1CCN(S(=O)(=O)N2CCC3(CC2)OCCO3)CC1)N1CCCCC1 | 3.78
NNC(=O)c1ccc(O)cc1O | -1.63
CCc1cc2c(SCC(=O)Nc3cc(C)on3)ncnc2s1 | 13.9
COc1ccc(C2NC(=S)NC(O)(C(F)(F)F)C2C(=O)c2cccs2)cc1 (centres unmarked) | 12
O=C(CSc1n[nH]c(-c2ccccc2)n1)NC1CCCCC1 | 6.47

SMILES | hERG current change (%, negative = inhibition) at 10uM [%]
C/C(=N/NC(=O)c1ccc(C)s1)c1ccncc1 | 21
O=C(c1cnc2sccn2c1=O)N1CCc2ccccc2C1 | 2.07
Cc1nc(NC(=O)COC(=O)CCC(=O)c2cccs2)c(Cl)cc1Cl | 21
COc1ccc(S(=O)(=O)N2CCN(CCOc3ccccc3Cl)CC2)cc1OC | -33.4
Cc1cc2nc(-c3ccc(SCC(=O)Nc4ccc5c(c4)OCCO5)nc3)[nH]c2cc1C | 2.26
COc1ccccc1NC(=O)c1sc(Cl)nc1C | 2.93
O=C(NCc1ccc(Cl)c(Cl)c1)c1cccnc1 | -5.36
COc1cccc(Sc2cc(N3CCOCC3)nc(-c3ccccc3)n2)c1 | -5.5
O=C(NNC(=O)c1ccccc1F)c1cccc(-n2cccc2)c1 | -22.9
CCCOc1ccc(NC(=O)CC2C(=O)N(Cc3ccccc3)C(=S)N2Cc2cccs2)cc1 (centres unmarked) | 7.68
CCOc1ccccc1N(C(C)=O)S(=O)(=O)c1ccc(Cl)cc1 | -8.79
CCCCc1c(O)nc(SCC(=O)NCC2CCCO2)[nH]c1=O (centres unmarked) | 4.14
COc1ccccc1N1CCN(/N=C\C(Br)=C\c2ccccc2)CC1 | 10.2
COCCCNC(=O)c1c(N)n(-c2ccc(S(N)(=O)=O)cc2)c2nc3ccccc3nc12 | 0.473
CSc1ccc(CN(C)C(=O)c2ccc(S(=O)(=O)Nc3ccccc3)cc2)cc1 | -12.4
CCOc1nonc1C(=N)/C(C(C)=O)=C(\C)O | 7.66
O=c1cc(-c2ccccc2Cl)oc2c(NS(=O)(=O)c3cccc4nsnc34)ccc(O)c12 | 3.75
O=C1CCCc2[nH]c3cccc(/C(=C/c4ccccc4)c4ccccc4)c3c21 | 8.64
COc1cccc(OC)c1C(=O)Nc1cccc(C(C)=O)c1 | -1.8
CCCCn1c(N)c(Sc2ccc([N+](=O)[O-])cc2)c(=O)[nH]c1=O | -79.5
O=C(c1ccccc1F)N1CCN(c2cccc(C(F)(F)F)c2)CC1 | -36.5
CC(C)(C)N1CC(C(=O)Nc2ccc(S(=O)(=O)N3CCCCC3)cc2)CC1=O (centres unmarked) | 0.361
O=C1c2ccccc2CN1Cc1ccccc1 | 9.91

SMILES | hERG current change (%, negative = inhibition) at 10uM [%]
CC1(C)C(c2ccccc2)=NC(c2cccnc2)=[N+]1[O-] | 14.8
C=CCn1c(SCC(=O)c2ccc(O)c(O)c2)nnc1-c1ccccc1OC | 3.16
COCCCNC(=O)CN1C(=O)COc2ccc(S(=O)(=O)N3CCCCCC3)cc21 | 12.2
O=S(=O)(NN=C1CCCCCC1)c1ccccc1 | -0.144
CCN(CC)C(=O)CC(c1ccc(OC)cc1)c1c(O)cc(OC)cc1OC (centres unmarked) | -1.57
COc1ccc2nc(-c3ccccc3)[nH]c2c1 | -1.4
O=C(COC(=O)Cc1cccc(C(F)(F)F)c1)NC1CC1 | 3.25
CC(C)Cn1c(N)c(C(=O)COC(=O)/C=C/c2ccccc2)c(=O)n(C)c1=O | -41.7
CCC(=O)c1ccc(OCC(O)CNCCc2ccc(Cl)cc2)cc1 (centres unmarked) | -72.1
O=C(Nc1cc(Cl)ccc1Cl)c1ccc(OC(=O)c2ccco2)cc1 | -12.8
COc1cccc2sc(NC(=O)c3ccc(Br)s3)nc12 | 13.8
CCn1c(SCC(=O)N2CCCc3ccccc32)nc2ccccc2c1=O | -18.7
CCOC(=O)CCc1c(C)nc2c(c(C)nn2-c2ccccc2)c1C | 11.7
Cc1cccc(Nc2ccccc2C(=O)OCC(=O)NCc2ccco2)c1C | -4.61
O=S(=O)(N/N=C\C=C\c1ccccc1)c1ccc(Cl)cc1 | -7.56
CCOC(=O)c1cc(NC(=O)N2CCCc3ccccc32)c(C)nc1C | -1.48
COc1ccccc1N1CCN(S(=O)(=O)CCNC(=O)C2CC(=O)N(c3ccccc3)C2)CC1 (centres unmarked) | 8.1
CCNc1ccccc1CP(=O)(c1ccccc1)c1ccccc1O (centres unmarked) | 14.4
O=c1oc2ccccc2c(CNc2ccccc2)c1[N+](=O)[O-] | 13.7
CC(C)C[C@H](NC(=O)N1CCn2c1nc1ccccc12)C(=O)N[C@@H](Cc1ccccc1)C(=O)O | -0.882
COc1cc(NC(=O)CSc2ccc(-c3ccco3)nn2)cc(OC)c1 | 11
CCN(CC)CCOc1cc2c(nn1)Oc1ccccc1N2C.Cl.O | -32.1
CCOc1ccccc1C(=O)NN1CCOCC1 | 19.4

SMILES | hERG current change (%, negative = inhibition) at 10uM [%]
Nn1cc(-c2ccccc2)nc1SCC(=O)Nc1ccc2c(c1)OCO2 | -31.8
Cc1ccc(NCc2nnc(SCC(=O)c3ccc4c(c3)OCCO4)o2)c(C)c1 | 13.7
COc1ccc(C(=O)N2CCC(N3CCN(c4ccccc4)CC3)CC2)cc1.O=C(O)C(=O)O | -57.6
CC(=O)OC1C(OC(C)=O)N(C(C)=O)C(=O)N1C(C)=O (centres unmarked) | 6.74
CC(C)CCOP(=O)(c1ccc(N(C)C)cc1)C(O)c1c(Cl)cccc1Cl (centres unmarked) | -23.2
O=C1c2ccccc2NC(c2ccc(F)cc2)N1Cc1ccco1 (centres unmarked) | -43.6
N#Cc1c(NC(=O)COC(=O)c2ccc(S(=O)(=O)N3CCCC3)cc2)sc2c1CCCCC2 | 6.38
Cc1c(-c2ccccc2Cl)nc2ccccc2c1C(=O)O | 16.7
CCOC(=O)C1=C(N)Oc2c(oc(CO)cc2=O)C1c1ccccc1 (centres unmarked) | -9.82
CCOC(=O)C1=C(C)N(Cc2ccc(C(=O)O)cc2)C(=O)NC1c1ccc([N+](=O)[O-])cc1 (centres unmarked) | 17.1
COc1ccccc1CCNC(=O)/C(=C/c1cccnc1)NC(=O)c1ccccc1 | -33.9
Cc1ccc(NC(=O)[C@H](CC(C)C)NC(=O)[C@@H]2Cc3ccccc3CN2)cc1 | -2.84
O=C(O)c1ccc(NC(=O)C2C3CCC(O3)C2C(=O)O)cc1 (centres unmarked) | 11.6
CN(CC(=O)Nc1ccc(F)cc1)C(=O)COC(=O)CNC(=O)c1ccc(Cl)cc1Cl | -2.14
CCc1nnc(NC(=O)CSc2ccc(-c3ccc(F)cc3)nn2)s1 | 22
CCOC(=O)c1c(C)[nH]c(C(=O)OCc2csc(CC(=O)Nc3ccccc3C)n2)c1C | 24.4
Cn1c(C(=O)NCCN2CCc3ccccc3C2)cc2c(=O)n(C)c3ccccc3c21 | -11.8
O=C(CSc1nncs1)Nc1cc(-c2ccccc2)nn1-c1ccccc1 | -39.1
O=C1CC(N2CCSCC2)C(=O)N1c1ccc(F)cc1 (centres unmarked) | -6.61
COc1ccc(NC(=O)CSc2nc3ccsc3c(=O)n2CCC(=O)O)c(OC)c1 | 12.5
